Measurements reported in PubChem BioAssay (NCATS).
Some of the results follow. These are further read-outs of the screen, such as a control signal, another cell line or another target. No call is given for them. Compounds called inactive in the main read-out are mostly missing here. The note in brackets gives the kind of curve behind each potency; many fits are weak.

Test: qHTS Assay for Lipid Storage Modulators (AID 1519)
Details: Drosophila S3 cells, BODIPY lipid droplet/cell ratio, laser cytometry, cells loaded with oleic acid; for AC50: measured here: lipid (BODIPY) channel AC50
Outline: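 Cells seeded at 5,000 per well were treated with compounds over a concentration series and loaded with oleic acid (400 uM, as added). Lipid droplet fluorescence (488 nm excitation, 500-530 nm channel) was read by laser-scanning cytometry and normalized to 20 uM Triacsin C.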

[1] = measured here: cell count channel max response
[2] = measured here: lipid channel max response
Tags describe the fitted curve by direction and shape.

| SMILES | max response [1] [%] | AC50 | max response [2] [%] |
| --- | --- | --- | --- |
| CCNc1ncc2nc(-c3ccc(F)cc3)c(=O)n(C)c2n1 | 20.3 | 794 nM [rising, full curve, poor fit] | 28.7 |
| COc1ccccc1CCn1c(=O)c(-c2cccc(Cl)c2)nc2cncnc21 | 14.7 | 224 nM [rising, full curve, poor fit] | 21.5 |
| COc1cccc(Cn2c(=O)c(-c3cccs3)nc3cnc(Nc4cccc(OC)c4)nc32)c1 | 16.7 | 31.6 nM [rising, full curve, poor fit] | -2.84 |
| COc1ccc(C(=O)N2CCC3(CC2)CCN(c2ccccn2)CC3)cc1 | 18.2 | 70.8 nM [rising, full curve, poor fit] | 32.7 |
| CN(C)C(=O)c1ccc(-c2cc(NCc3cccs3)ncn2)cc1 | 26.3 | 4470 nM [rising, partial curve] | 36.2 |
| CC(=O)OCC(=O)[C@@]1(O)CCC2C3CCC4=CC(=O)C=CC4(C)C3C(O)C[C@]21C (some centres not stated) | 14 | 28200 nM [rising, single point] | 30.7 |
| COc1ccc(Oc2ncc3nc(CCc4ccccc4)c(=O)n(C[C@H]4CCCO4)c3n2)cc1 | -6.88 | 39800 nM [falling, single point] | -63.1 |
| CN(C)C(=O)c1ccc(-c2cncnc2NCCN2CCOCC2)cc1 | 28.6 | 35500 nM [rising, partial curve, poor fit] | 38.4 |
| O=C(Nc1cccc(F)c1)N1CCCC2(CCN(C(=O)c3ccco3)CC2)C1 | -2.2 | 70.8 nM [rising, full curve, poor fit] | 4.06 |
